In patent publication EP4681729A1 (Shanghai Mabgen Biotech Ltd., dated 2026):
Changes are numbered by the printed parent chain. Like-named read-outs stand apart in the source and are kept apart here.

T1: human PVRIG expressed on cells (human, UniProt Q6DKI7 1-326)
T1 sequence (looked up): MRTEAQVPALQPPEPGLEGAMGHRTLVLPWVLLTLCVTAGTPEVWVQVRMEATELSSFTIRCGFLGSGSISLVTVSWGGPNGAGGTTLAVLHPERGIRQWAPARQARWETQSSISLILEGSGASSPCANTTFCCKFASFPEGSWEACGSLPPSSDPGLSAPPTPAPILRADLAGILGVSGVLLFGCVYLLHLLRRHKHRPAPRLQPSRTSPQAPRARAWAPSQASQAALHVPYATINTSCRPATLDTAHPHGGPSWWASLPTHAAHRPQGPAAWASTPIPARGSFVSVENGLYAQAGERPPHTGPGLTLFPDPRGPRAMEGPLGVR

T2: h-PVRIG-his (his-tagged human PVRIG recombinant protein) (human, UniProt Q6DKI7 41-171, limits assumed)
T2 construct: His tag; also called Human PVRIG-his; human PVRIG antigen (AcroBiosystem, PVG-H52H4)
T2 sequence (looked up): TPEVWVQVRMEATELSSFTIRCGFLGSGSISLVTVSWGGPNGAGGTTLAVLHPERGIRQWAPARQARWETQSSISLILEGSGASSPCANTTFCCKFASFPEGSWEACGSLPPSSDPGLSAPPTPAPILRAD

B1: A17_hIgG4 (Fc fusion)
heavy: EVQVVESGGGLVQPGGSLRLSCVASGLTFSDYSMSWYRQAPGKERELVAIISGSGVIAHYVDSVKGRFTISRDNAKSTVYLQMVSLKPEDRGVYYCRAVSDWDDYWGQGTQVTVSS[gap - human IgG4 Fc with S228P (EU numbers)]
B2: 151 (anti-PVRIG nanobody, full length with human IgG4 Fc) (Fc fusion)
heavy: HVQLVESGGGSVQAGGSLRLSCVASASGFTYRPYCMAWFRQAPGKEREAVAGIDIFGGTTYADSVKGRFTASRDNAGFSLFLQMNDLKPEDTAMYYCAAGDSPDGRCPPLGQGLNYWGQGTQVTVSS[gap - human IgG4 Fc with S228P F234A L235A (EU numbers)]
B3: A17m09_hIgG4 (Fc fusion)
chain: B1 heavy with V4L, V5Q, V23T, E44G, A58T, S77N, V84R, K87T, G92A, D103E
B4: A17h1_hIgG4 (Fc fusion)
chain: B1 heavy with V4L, V5Q, V23T, E44G, A75S, S77N, V84R, K87T, G92A
B5: A17m0901_hIgG4 (Fc fusion)
VHH-Fc: EVQLVESGGGLVQPGGSLRLSCAASGFTFSDYSMSWYRQAPGKGRELVAIISGSGVITHYVDSVKGRFTISRDNAKNTLYLQMRSLRAEDTAVYYCRAVSDWEDYWGQGTQVTVSS[gap - human IgG4 Fc with S228P (EU numbers)]
B6: A17m0902_hIgG4 (Fc fusion)
VHH-Fc: B5 VHH-Fc with F27L
B7: A17h1-1708-151H7-B (other, not shown: small tags and cut ends)
heavy: HVQLVESGGGLVQPGGSLRLSCVASASGFTYRPYCMAWFRQAPGKEREAVAGIDIFGGTTYADSVKGRFTASRDNAGFSLYLQMNSLRAEDTAVYYCAAGDSPDGRCPPLGQGLNYWGQGTMVTVSSGGGGSGGGGSEVQLVQSGAEVKKPGASVKVSCKASGYTFTNYWMHWVRQAPGQGLEWMGRIDPDSTGSKYNEKFKTRVTMTRDTSTSTVYMELSSLRSEDTAVYYCAREGAYGYYFDYWGQGTLVTVSSASTKGPSVFPLAPCSRSTSESTAALGCLVKDYFPEPVTVSWNSGALTSGVHTFPAVLQSSGLYSLSSVVTVPSSSLGTKTYTCNVDHKPSNTKVDKRV[gap - human IgG4 Fc with S228P (EU numbers)]
light (part 1 of 2): EVQLQESGGGLVQPGGSLRLSCTASGLTFSDYSMSWYRQAPGKGRELVAIISGSGVIAHYVDSVKGRFTISRDNSKNTVYLQMRSLTPEDRAVYYCRAVSDWDDYWGQGTQVTVSS
light (part 2 of 2): DIQMTQSPSSLSASVGDRVTITCRASENIYSYLAWYQQKPGKSPKLLIYNARTLAEGVPSRFSGSGSGTDFTLTISSLQPEDFATYYCQYHSGSPLPFGGGTKVEIKRTVAAPSVFIFPPSDEQLKSGTASVVCLLNNFYPREAKVQWKVDNALQSGNSQESVTEQDSKDSTYSLSSTLTLSKADYEKHKVYACEVTHQGLSSPVTKSFNRGEC
notes: also called PD-1/PVRIG/TIGIT-B
B8: A17h1-1708-151H7-D (other, not shown: small tags and cut ends)
heavy: B7 heavy
light (part 1 of 2): B7 light (part 2 of 2)
light (part 2 of 2): B7 light (part 1 of 2)
notes: also called PD-1/PVRIG/TIGIT-D

How the values were obtained:
[1] = molecular target: T3, human PD-1 expressed on cells (human, UniProt Q15116 25-288); experiment: cell-based or functional assay
[2] = molecular target: T1, human PVRIG expressed on cells; experiment: cell-based or functional assay
[3] = molecular target: T3, human PD-1 expressed on cells; experiment: cell-based or functional assay; remark: listed apart in the source
[4] = molecular target: T2, h-PVRIG-his (his-tagged human PVRIG …); experiment: ELISA, plate coated with PVRIG protein (his tag, PVG-H52H4)

T3 sequence (Q15116 25-288): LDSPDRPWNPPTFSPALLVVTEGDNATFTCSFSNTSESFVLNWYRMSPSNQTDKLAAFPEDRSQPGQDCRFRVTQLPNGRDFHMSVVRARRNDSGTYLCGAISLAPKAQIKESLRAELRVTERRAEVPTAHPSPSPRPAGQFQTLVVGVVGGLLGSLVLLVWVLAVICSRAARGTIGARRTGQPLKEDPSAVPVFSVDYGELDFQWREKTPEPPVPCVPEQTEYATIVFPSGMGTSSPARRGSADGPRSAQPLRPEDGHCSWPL

Binder	IC50 (nM), PD-1/PD-L1 NFAT reporter gene system [3]	other results
B1	–	IC50 (nM), PD-1/PD-L1 NFAT reporter gene system [1]: 1.2 nM
B2	–	PVRIG reporter gene cell activity EC50 [2]: 0.04 nM
B3	1.08 nM	–
B4	1.04 nM	–
B5	0.531 nM	–
B6	0.435 nM	–
B7	–	EC50 [4]: 0.154 nM
B8	–	EC50 [4]: 0.158 nM
